Data on seven molecules can be found in PMC3519786, “Novel Interactions between FOXM1 and CDC25A Regulate the Cell Cycle” (PLoS ONE, 2012).

Numbering of substitutions follows the chain as printed. In names and notes the source's numbering stands. Results are given in words; binding and its absence hold for the method and conditions named. In cells and extracts the contact can be indirect. Some binding calls cover weakened binding; strength is not graded here. For some of these results: Tags and fused reporters may be left off the sequences shown.

One experiment deals with T1, FOXM1-3×FLAG (human) (UniProt Q08050).
T1 sequence: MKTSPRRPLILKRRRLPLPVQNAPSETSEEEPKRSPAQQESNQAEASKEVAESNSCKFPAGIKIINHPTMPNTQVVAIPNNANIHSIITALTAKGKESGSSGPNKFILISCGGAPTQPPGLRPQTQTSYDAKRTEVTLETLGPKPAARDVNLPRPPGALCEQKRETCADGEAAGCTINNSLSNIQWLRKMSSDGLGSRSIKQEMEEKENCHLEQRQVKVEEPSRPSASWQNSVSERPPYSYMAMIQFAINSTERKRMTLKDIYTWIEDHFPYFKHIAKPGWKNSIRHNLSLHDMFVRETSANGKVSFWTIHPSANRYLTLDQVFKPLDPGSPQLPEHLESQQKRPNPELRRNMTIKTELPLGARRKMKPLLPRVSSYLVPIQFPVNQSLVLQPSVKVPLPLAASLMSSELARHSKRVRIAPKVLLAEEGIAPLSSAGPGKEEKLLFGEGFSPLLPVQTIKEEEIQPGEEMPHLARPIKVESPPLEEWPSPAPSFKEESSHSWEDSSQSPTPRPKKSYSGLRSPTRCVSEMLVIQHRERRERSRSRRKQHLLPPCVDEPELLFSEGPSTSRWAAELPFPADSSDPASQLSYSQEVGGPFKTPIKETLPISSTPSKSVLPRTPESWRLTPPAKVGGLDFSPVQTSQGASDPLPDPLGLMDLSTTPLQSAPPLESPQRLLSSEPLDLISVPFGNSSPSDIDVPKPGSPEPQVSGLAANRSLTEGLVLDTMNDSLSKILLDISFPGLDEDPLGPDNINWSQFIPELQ
In words: co-IP; HEK293T co-transfected with FOXM1-3×FLAG and CDC25A-3×MYC; lysed in M-PER with protease and phosphatase inhibitors; anti-FLAG M2 resin overnight at 4°C; washed in TBS pH 7.2 with 0.1% Tween 20; eluted with 3×FLAG peptide; Western blot. On the technique in general: A western blot detects proteins with antibodies after separation by electrophoresis.

Experiment [1] concerns the target T2, endogenous CDC25A (human (endogenous in U2OS)) (UniProt P30304).
T2 sequence: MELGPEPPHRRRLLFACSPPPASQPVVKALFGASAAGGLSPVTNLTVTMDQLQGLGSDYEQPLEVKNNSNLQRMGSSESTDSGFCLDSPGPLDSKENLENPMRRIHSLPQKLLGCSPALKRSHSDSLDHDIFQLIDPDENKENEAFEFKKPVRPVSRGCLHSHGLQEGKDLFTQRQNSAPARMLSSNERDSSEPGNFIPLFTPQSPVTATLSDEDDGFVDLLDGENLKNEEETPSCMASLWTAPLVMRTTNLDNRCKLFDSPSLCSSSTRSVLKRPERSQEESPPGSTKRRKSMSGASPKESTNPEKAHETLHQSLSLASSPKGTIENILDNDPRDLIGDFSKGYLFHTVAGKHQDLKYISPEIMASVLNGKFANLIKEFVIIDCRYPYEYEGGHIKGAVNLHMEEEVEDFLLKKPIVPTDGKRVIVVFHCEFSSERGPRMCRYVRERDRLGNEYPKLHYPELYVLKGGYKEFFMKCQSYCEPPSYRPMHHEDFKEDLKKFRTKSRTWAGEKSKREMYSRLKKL
In words: co-IP; U2OS transfected with FOXM1-3×FLAG (wild-type or mutant), 48 h; lysates precipitated with anti-CDC25A antibody agarose; blot with anti-FLAG.

Experiment [2] has as its target T2, endogenous CDC25A (human (endogenous in U2OS)). The experiment can be described thus: co-IP; endogenous proteins, U2OS lysate in MPER with protease/phosphatase inhibitors; pre-cleared with protein G sepharose and normal rabbit IgG; anti-CDC25A antibody overnight at 4°C, protein G sepharose 1 h; blot with anti-FOXM1.

B1: CDC25A-3×MYC (protein, UniProt P30304 1-524)
chain: T2 sequence
For B1, in the experiment with FOXM1-3×FLAG (human), the binding result is recorded as “binds”.

B2: FOXM1-3×FLAG (wild-type), expressed in U2OS (protein, UniProt Q08050 1-763)
chain: T1 sequence
On to B2, for which the binding result in experiment [1] is reported as “binds”.

B3: FOXM1(T600A)-3×FLAG (protein, UniProt Q08050 1-763)
chain: T1 sequence with T600A
For the molecule B3, in experiment [1], the binding entry is on record as “binds”.

B4: FOXM1(T611A)-3×FLAG (protein, UniProt Q08050 1-763)
chain: T1 sequence with T611A
In the case of B4, in experiment [1], the binding result is “binds”.

B5: FOXM1(L656A)-3×FLAG (protein, UniProt Q08050 1-763)
chain: T1 sequence with L656A
Consider B5, for which, in experiment [1], the binding result is on record as “binds”.

B6: FOXM1(T620A)-3×FLAG (protein, UniProt Q08050 1-763)
chain: T1 sequence with T620A
On to B6, for which the binding entry in experiment [1] is given as “binds”.

B7: endogenous FOXM1 (protein, UniProt Q08050 1-763)
chain: T1 sequence
For B7, in experiment [2], the binding result is “binds”.
